Results on 115 sequences are retold here after the BET-seq Pho4 binding data (Le et al. 2018).

This is one part of the list. Values were computed here from the reads of four pooled replicates and scatter widely.

In the assay the target is T1, Pho4 (S. cerevisiae) (UniProt P07270).
T1 sequence: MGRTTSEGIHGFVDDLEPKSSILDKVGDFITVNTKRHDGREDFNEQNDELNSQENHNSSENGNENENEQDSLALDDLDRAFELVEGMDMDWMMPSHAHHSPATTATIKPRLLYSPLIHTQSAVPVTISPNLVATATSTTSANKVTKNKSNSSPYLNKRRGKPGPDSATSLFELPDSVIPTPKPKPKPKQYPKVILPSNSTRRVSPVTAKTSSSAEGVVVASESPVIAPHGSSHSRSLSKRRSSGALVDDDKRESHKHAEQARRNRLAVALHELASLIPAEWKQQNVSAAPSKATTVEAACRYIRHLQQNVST
The assay is described as follows: relative binding free energy (BET-seq); higher = weaker binding. The conditions noted are these: reference: library average.
As for GTTCTCACGTGTATTA, the “relative binding free energy” value turned out to be 0.24 kcal/mol.

Take AGGGTCACGTGATGCT: the “relative binding free energy” value stood at 0.24 kcal/mol. Regarding GTCTTCACGTGCGTTT, the “relative binding free energy” value is 0.4 kcal/mol. As to GGGGACACGTGTTATA, the “relative binding free energy” value came out at 0.01 kcal/mol. As to TGGAGCACGTGACTGG, the “relative binding free energy” value was 0.01 kcal/mol. For GGCTACACGTGAGGGG, the “relative binding free energy” value came out at 0.29 kcal/mol.

As for AGTATCACGTGGTTGC, the “relative binding free energy” value was 0.07 kcal/mol. Turning to TTAGTCACGTGTATAG, the “relative binding free energy” value came out at 0.08 kcal/mol.

For AAAATCACGTGGGGCG, the “relative binding free energy” value came out at 0.22 kcal/mol. TTCGGCACGTGTCGTT: the “relative binding free energy” value worked out at 0.08 kcal/mol.

With TGGGGCACGTGCTATG, the “relative binding free energy” value is -0.18 kcal/mol.

Regarding GTAAGCACGTGTTTGT, the “relative binding free energy” value was determined as 0.02 kcal/mol. In the case of GTGAACACGTGTGCGG it was -0.05 kcal/mol.

For the sequence CTTTGCACGTGCTGTT, the “relative binding free energy” value is -0.21 kcal/mol. In the case of TGGTTCACGTGATGTA it was 0.5 kcal/mol. As to AGTTGCACGTGGAGTG, the “relative binding free energy” value was -0.07 kcal/mol. In the case of GGTGGCACGTGGCTTG it was -0.12 kcal/mol. As for TTGGTCACGTGTTCGT, the “relative binding free energy” value worked out at 0.08 kcal/mol. In the case of ATGTACACGTGGTAAG it was 0.08 kcal/mol; in that of GTTGGCACGTGAATTA, 0.17 kcal/mol; in that of AAAAGCACGTGGTTTG, -0.18 kcal/mol. Regarding CGCTTCACGTGGGCGG, the “relative binding free energy” value came to 0.13 kcal/mol.

On to ATCTTCACGTGAAGGA, for which the “relative binding free energy” value is 0.46 kcal/mol. Consider TGTTTCACGTGAAGAA, for which the “relative binding free energy” value is 0.37 kcal/mol. In the case of GATCGCACGTGCGTGT, the “relative binding free energy” value was -0.01 kcal/mol. As to ACAGTCACGTGCGTGG, the “relative binding free energy” value worked out at 0.04 kcal/mol. With CGGCTCACGTGTTGGT, the “relative binding free energy” value is 0.27 kcal/mol. With ACGGGCACGTGGGTAA, the “relative binding free energy” value was -0.3 kcal/mol. In the case of ATTAGCACGTGTTGAT it was -0.09 kcal/mol. Turning to GTGTGCACGTGTCGTT, the “relative binding free energy” value is -0.05 kcal/mol. On to AAGGGCACGTGTCAAG, for which the “relative binding free energy” value is -0.16 kcal/mol. As for TGTGACACGTGAATGA, the “relative binding free energy” value stood at 0.25 kcal/mol. Take GATCTCACGTGTTGGT: the “relative binding free energy” value was found to be 0.36 kcal/mol. Regarding ACGAGCACGTGGGATG, the “relative binding free energy” value was -0.11 kcal/mol. Consider GTCGTCACGTGGTATG, for which the “relative binding free energy” value amounted to 0.03 kcal/mol. Turning to AAAGACACGTGCTGGT, the “relative binding free energy” value turned out to be 0.06 kcal/mol. Turning to ATATTCACGTGTATTT, the “relative binding free energy” value amounted to 0.24 kcal/mol.

As for GGGTCCACGTGGGAGC, the “relative binding free energy” value is -0.05 kcal/mol.

Regarding ATTAGCACGTGAGATA, the “relative binding free energy” value turned out to be 0.18 kcal/mol.

On to AAGTGCACGTGTTATC, for which the “relative binding free energy” value stood at 0.03 kcal/mol. CTCGGCACGTGAGTGT: the “relative binding free energy” value was determined as 0.21 kcal/mol. As for GAGTACACGTGGGTGA, the “relative binding free energy” value was -0.12 kcal/mol. On to GAGTGCACGTGCCTGT, for which the “relative binding free energy” value turned out to be 0.01 kcal/mol. In the case of ATGTACACGTGAGTTG it was 0.15 kcal/mol. Consider TTTAGCACGTGGAGGA, for which the “relative binding free energy” value was -0.07 kcal/mol. For the sequence GTGAGCACGTGGTCAT, the “relative binding free energy” value is -0.22 kcal/mol. For the sequence AGTGGCACGTGAGGTT, the “relative binding free energy” value is 0.16 kcal/mol. For the sequence TAGGTCACGTGGAGCT, the “relative binding free energy” value came out at 0.12 kcal/mol. In the case of ATTAGCACGTGAGGAG, the “relative binding free energy” value was 0.19 kcal/mol. On to TATGTCACGTGAGGCG, for which the “relative binding free energy” value came out at 0.29 kcal/mol. On to TGTAACACGTGGTGGG, for which the “relative binding free energy” value was 0 kcal/mol.

For the sequence CTGTGCACGTGTAGCG, the “relative binding free energy” value was found to be 0.03 kcal/mol.

Regarding TTTACCACGTGGTGGT, the “relative binding free energy” value was -0.19 kcal/mol.

For ACTGACACGTGGTGGA, the “relative binding free energy” value turned out to be 0.01 kcal/mol. As to TGATTCACGTGAAGCT, the “relative binding free energy” value turned out to be 0.4 kcal/mol. Turning to AGTTACACGTGTTATG, the “relative binding free energy” value amounted to 0.11 kcal/mol. For the sequence ATGGACACGTGATGGG, the “relative binding free energy” value stood at 0.19 kcal/mol.

Take GTGGTCACGTGGCCTG: the “relative binding free energy” value was 0.19 kcal/mol. For TTAAGCACGTGTGCTT, the “relative binding free energy” value was -0.14 kcal/mol. As for TGGATCACGTGGTACG, the “relative binding free energy” value came out at 0.02 kcal/mol.

Regarding ATATTCACGTGTTTAT, the “relative binding free energy” value was 0.14 kcal/mol. On to AGTGTCACGTGGGGCG, for which the “relative binding free energy” value is -0.17 kcal/mol. In the case of TAGCTCACGTGTTTGA it was 0.1 kcal/mol. GTATGCACGTGGGCAG: the “relative binding free energy” value was -0.05 kcal/mol. For GCCGGCACGTGGGGGC, the “relative binding free energy” value was -0.32 kcal/mol. On to TCGTTCACGTGTAGAA, for which the “relative binding free energy” value turned out to be 0.37 kcal/mol. With AGATGCACGTGCGTGC, the “relative binding free energy” value is 0.06 kcal/mol. For the sequence TGGATCACGTGTGCCA, the “relative binding free energy” value came out at 0.27 kcal/mol. TGAAACACGTGTTGTT: the “relative binding free energy” value is 0.01 kcal/mol. For the sequence TGCAACACGTGGGGTT, the “relative binding free energy” value is -0.13 kcal/mol. Consider TTTAACACGTGTAGCG, for which the “relative binding free energy” value is 0.07 kcal/mol. In the case of TGGTACACGTGATGCT it was 0.17 kcal/mol; in that of AGGCTCACGTGTGAAG, 0.24 kcal/mol. In the case of TAATCCACGTGGAGGG, the “relative binding free energy” value was -0.05 kcal/mol. Turning to TTGGGCACGTGTATGA, the “relative binding free energy” value is 0 kcal/mol.

CATGACACGTGTGTTT: the “relative binding free energy” value came out at 0.1 kcal/mol.

As for TTATGCACGTGGCGAG, the “relative binding free energy” value amounted to 0.03 kcal/mol. In the case of TGGGACACGTGTTTCG, the “relative binding free energy” value turned out to be 0.09 kcal/mol. For TGTGACACGTGTGTTC, the “relative binding free energy” value came out at 0.02 kcal/mol.

For the sequence GATATCACGTGCTTAT, the “relative binding free energy” value was 0.31 kcal/mol. In the case of TCGTACACGTGAGGGG, the “relative binding free energy” value turned out to be 0.33 kcal/mol. As for AAGTTCACGTGCGTGT, the “relative binding free energy” value is 0.33 kcal/mol.

Regarding TAGGTCACGTGGTGTA, the “relative binding free energy” value was -0.03 kcal/mol. For ACTGACACGTGGGTTT, the “relative binding free energy” value was -0.17 kcal/mol.

With TTAGGCACGTGTTAAT, the “relative binding free energy” value is -0.12 kcal/mol. In the case of AGGATCACGTGATAGG, the “relative binding free energy” value was 0.33 kcal/mol.

Regarding TGATGCACGTGTGTCG, the “relative binding free energy” value is -0.16 kcal/mol. In the case of AATGGCACGTGATGGT it was 0.1 kcal/mol; in that of ATGTGCACGTGTATGG, -0.07 kcal/mol. In the case of TCCTTCACGTGGGATT it was 0.4 kcal/mol; in that of GACGGCACGTGTGGTT, -0.07 kcal/mol. Take TTGGGCACGTGGGAAA: the “relative binding free energy” value was -0.07 kcal/mol. For the sequence AATAACACGTGTATGT, the “relative binding free energy” value was -0.08 kcal/mol. In the case of CGTTGCACGTGGCGAG it was 0.02 kcal/mol; in that of ACGTTCACGTGATTAG, 0.43 kcal/mol; in that of GAGGGCACGTGTTATG, 0 kcal/mol. Turning to GGGTACACGTGGGGCA, the “relative binding free energy” value stood at 0 kcal/mol. In the case of GTCGCCACGTGATGGG it was 0.14 kcal/mol; in that of TGATGCACGTGCTATA, 0.05 kcal/mol; in that of ATGGTCACGTGACATT, 0.19 kcal/mol. Consider CATTGCACGTGATGTG, for which the “relative binding free energy” value is -0.08 kcal/mol. In the case of GGCATCACGTGTTTAG, the “relative binding free energy” value turned out to be 0.14 kcal/mol.

For CGGCTCACGTGGTGGA, the “relative binding free energy” value came out at 0.19 kcal/mol. Regarding CGAGGCACGTGAGGAT, the “relative binding free energy” value was 0.22 kcal/mol. GGTATCACGTGTAGCT: the “relative binding free energy” value was determined as 0.19 kcal/mol.

On to ATGGTCACGTGGTGGC, for which the “relative binding free energy” value turned out to be 0.01 kcal/mol. In the case of GATATCACGTGTTCGG it was 0.19 kcal/mol; in that of GGATTCACGTGTCTGT, 0.21 kcal/mol. In the case of AATTGCACGTGTGTGC it was 0.14 kcal/mol; in that of ATGTGCACGTGCGGTG, -0.05 kcal/mol; in that of AGTAGCACGTGGAGTA, -0.06 kcal/mol.

As for GGGTACACGTGGGATT, the “relative binding free energy” value is -0.01 kcal/mol.

Regarding ACGGGCACGTGGAGCT, the “relative binding free energy” value is -0.04 kcal/mol.

Turning to TGTGTCACGTGATGGT, the “relative binding free energy” value was determined as 0.26 kcal/mol.

As to TATGACACGTGACGGG, the “relative binding free energy” value was 0.07 kcal/mol.
